The values below come from ChEMBL document CHEMBL1157539, “Thousands of chemical starting points for antimalarial lead identification” (Nature, 2010).

The structures appear in SMILES notation. In all, about 13,000 compounds were measured (“IFI”: median about 4, highest 2% from about 17 on). This is one part of the list.

The nature of the experiment: GSK_TCMDC: Inhibition Frequency Index (IFI). The number of non-kinase HTS assays where a compound showed > 50 % inhibition, expressed as a percentage of the number of such assays in which the compound was tested (-0 is zero). The format is functional.
Compound `COc1cccc(-c2cc(C(=O)Nc3cc(Oc4ccc(O)cc4)cc([N+](=O)[O-])c3)on2)c1` returned an IFI of 2.99%. Then `CC(O)C(C)(CO)NCc1ccc2c3c(cccc13)-c1ccccc1-2` (stereo unspecified), with 7.3%; and `FC(F)(F)c1cccc(CNCC2CCN(Cc3ccc4c(c3)OCO4)CC2)c1`, with 2.04%; and `CCc1cccc(NC(=O)c2ccc(CN3CCCN(CC4CCCCC4)CC3)cc2)c1`, with 9.45%. With `Cc1nc(NC(=N)N)nc2cc3c(cc12)CCC3`, the IFI amounted to 4.14%. Then `Oc1ccccc1CNCc1ccc(-c2cnc(N3CCCC(c4ccccc4)C3)nc2)cc1` (stereo unspecified), with 5.88%. Then `COc1ccc(NC(=O)[C@H](CC(C)C)Nc2ccnc(Nc3ccccc3)n2)cc1`, with 6.82%; and `CSc1ccccc1NC(=S)NC1CCN(CCCCCNC(=O)/C=C/c2ccc(Cl)c(Cl)c2)CC1`, with 8.45%; and `Cc1cccc2nc(-c3ccc(-c4cccc(CNCCCNS(C)(=O)=O)c4)cc3)[nH]c12`, with 1%. Then `CCn1c(Cc2ccccc2)nnc1Sc1ccc([N+](=O)[O-])c(C#N)c1`, with 2.05%; and `O=C(NC1CCCCC1)N(Cc1ccccc1-c1ccc(CNCCc2ccccc2)cc1)C1CCN(Cc2ccccc2)CC1`, with 6.52%; and `COc1ccc(S(=O)(=O)N2CCCC(C)C2)cc1N1CCN(C(=O)c2ccc([N+](=O)[O-])o2)CC1` (stereo unspecified), with 5.13%. `CCOc1ccc(Br)cc1/C=C/C(=O)Nc1ccc2c(c1)CN(C)CCC2` gave an IFI of 8.93%. As for `O=C(Nc1ccc2c(c1)CCC2)c1cccc(CN2CCCN(Cc3cccc(O)c3)CC2)c1`, the IFI amounted to 2.8%. For the compound `COc1ccc(Nc2nc(C)cc(NC3CCCC3)n2)cc1`, the IFI amounted to 16.2%. Then `Cc1c(CNCCCNc2nc3ccncc3[nH]2)sc(Br)c1Br`, with 1.5%.

For `O=C(/C=C/c1ccc(F)c(Br)c1)NCCCCCN1CCC(c2c[nH]c3ccccc23)CC1`, the IFI turned out to be 9.49%.

Compound `O=S(=O)(Nc1cccc(CCN2CCC(N3CCCCC3)CC2)c1)c1ccc(Oc2ccccc2)cc1` returned an IFI of 11.1%. Then `O=C(c1cc2cccc([N+](=O)[O-])c2[nH]1)N1CCC(CCN2CCC(c3c[nH]c4ccccc34)CC2)CC1`, with 8.03%; and `CC(C)(CNC(=O)C1CCN(CCOc2ccc(F)c(F)c2)CC1)c1nc(-c2ccc(Cl)c(O)c2)c(-c2ccncc2)[nH]1`, with 5.07%.

Compound `CC[C@H](C)CNC(=O)c1ccnc(-c2ccc(CNC3Cc4ccccc4C3)cc2)c1` gave an IFI of 7.46%. Then `CNc1ccc(CNCc2cccc(-c3ccc(-c4nc5ccccc5[nH]4)s3)c2)cc1`, with 9.71%; and `O=C(/C=C/c1ccc(Cl)c(Cl)c1)N1CCC(NCc2ccc3[nH]ccc3c2)CC1`, with 3.85%; and `Cc1cccc2nc(O)c([N+](=O)[O-])c(O)c12`, with 1.52%. Then `OCCN1CCN(C(=S)NC2CCCCC2)CC1`, with 0%; and `CCOc1ccc(C(=O)Nc2cc(Br)c3c(c2)CNCC3)cc1C#N`, with 3.6%; and `COc1ccc(S(=O)(=O)NC2CCN(c3ccnc4cc(Cl)ccc34)C2)cc1` (stereo unspecified), with 4.62%. The value for `CCCNCc1ccc(-c2ccc(CN(Cc3cnc(C)cn3)C(=O)CC#N)cc2)nc1` was 1.4%; that for `COc1ccc(Cl)cc1NC(=O)CN(C)C(=O)c1cnn(-c2ccccc2)n1` was 1.98%; that for `CCOC(=O)CCCCOc1c(OC)cc(Cc2cnc(N)nc2N)cc1OC` was 0.74%. On to `CCn1cc(CN2CCCC(C(=O)Nc3ccc(-c4nc5ccccc5[nH]4)cc3)C2)c(C)n1` (stereo unspecified), for which the IFI is -0%. The value for `FC(F)(F)c1cccc(N=C(S)NN=Cc2ccccn2)c1` was 4.72%; that for `CCCC(=O)Nc1ccc(OCCCN(Cc2ccccc2OC(F)(F)F)c2ccc(C#N)c(C(F)(F)F)c2)cc1` was -0%. The value for `FC(F)(F)c1cccc(CCNc2nccc(NCc3ccccc3Cl)n2)c1` was 8%; that for `CCOC(=O)Cc1nc(C(=O)OCC)c(N)[nH]1` was 0%. For the compound `COC(=O)C(=O)c1c(-c2ccccc2)c(-c2ccc(OC)c(OC)c2)c2c3cc(OC)c(OC)cc3ccn12`, the IFI was -0%. Then `Cc1cccc2nc(-c3ccc(-c4ccc(NC(=O)C(C)CN(C)C)cc4)cc3)[nH]c12` (stereo unspecified), with 5.41%; and `CC(C)N1CCN(C(=O)c2ccc(CNCCCN3CCN(c4cccc(Cl)c4Cl)CC3)s2)CC1`, with 12.1%; and `O=[N+]([O-])c1ccc(-c2ccc(C=NNc3nc(Nc4ccccc4)nc(Nc4ccccc4)n3)o2)cc1`, with 0.72%.

Compound `COc1cc(NCCCNCC2c3ccccc3Oc3ccccc32)nc2ccccc12` displayed an IFI of 20.8%. Then `CCCCCCP(=O)(COc1ccc(CCN(CC(O)COc2cccc3[nH]c(C(N)=O)cc23)CC(O)COc2cccc3[nH]c(C(N)=O)cc23)cc1)OCCCC` (stereo unspecified), with 5.59%. Then `COc1ccc(CNC2CCN(C)CC2)cc1-c1ccc(S(=O)(=O)NCCN2CCCC2)s1`, with -0%.

In turn, `O=c1cc(NCCCNCc2ccc(C(F)(F)F)s2)[nH]c2ccccc12` yielded an IFI of 0.72%. Then `CC1(C)NC(N)=NC(=N)N1OCCSc1ccc(Cl)c(Cl)c1`, with 6.67%; and `COc1ccc(C(=O)CCC(=O)N(Cc2ccc(-c3ccc(CNCc4cccnc4)cn3)cc2)C2CCN(Cc3ccccc3)CC2)cc1F`, with 4.73%; and `CC(C)C[C@H](NC(=O)c1cc(-c2ccc(C(C)(C)C)cc2)no1)C(=O)O.CC(C)C[C@H](NC(=O)c1conc1-c1ccc(C(C)(C)C)cc1)C(=O)O`, with 0.74%. Then `CC(C)(CNCc1ccccc1)c1nc(-c2ccc(Cl)c(O)c2)c(-c2ccncc2)[nH]1`, with 8.9%; and `NC(=O)c1cc2nc(Nc3ccc(F)cc3)nc(NC3CCC3)c2[nH]1`, with 11.9%. The value for `CCC[C@@H]([C@@H](CC1CCC(C)CC1)C(=O)N[C@@H](CO)C(=O)Nc1nccs1)N(O)C=O` (stereo partly specified) was 1.6%. For `O=c1cc(N2CCNCC2)c(Cl)nn1Cc1ccc(NS(=O)(=O)c2ccc(Oc3ccccc3)cc2)cc1`, the IFI is 6.9%. Then `Cc1noc(C)c1-c1cccc(CNCc2cccc(-c3cccc(-c4nc5cc(F)ccc5[nH]4)c3)c2)c1`, with 5.88%. Then `CC(C)NCc1cccc(-c2cccc(NC(=O)c3cccc(C#N)c3)c2)c1`, with 0.98%; and `COc1cc2ncnc(Nc3ccc4nc(-c5ccccc5)[nH]c4c3)c2cc1OC`, with 4.2%; and `CC(C)c1cc2c(ccc3nc(N)nc(N)c32)o1`, with 4%. As to `O=C(NC1CCN(CC2(c3ccccc3)CCCC2)CC1)c1n[nH]cc1Cl`, the IFI was -0%. In the case of `CN1CCC(NCc2cccc(-c3ccc(S(=O)(=O)NCCc4ccccn4)c(F)c3)c2)CC1`, the IFI came out at 1.67%. Then `COc1ccc(NC(=O)NC2CCN(CCCOc3ccnc4cc(Cl)ccc34)C2)cc1OC` (stereo unspecified), with -0%; and `O=C(NCCOc1ccccc1)[C@H](Cc1ccccc1)Nc1ccnc(NCC2CCCCC2)n1`, with 20%; and `Clc1ccc(C2CCN(CCCOc3ccc4c(c3)CCNCC4)CC2)cc1`, with 10%. Then `Cc1cc(C(=O)Nc2ccc(OCc3ccccc3)cc2)on1`, with -0%. With `COc1ccc2ncc(Cl)c(CCN3CC[C@@H](CNCc4cc5c(cn4)OCS5)C3)c2n1`, the IFI was found to be 4.46%. Then `Cc1cc(N2CCN(C3CCCCC3)CC2)nc2cccc(O)c12`, with 0.95%.

As to `O=C(Nc1cc(C(F)(F)F)ccc1N1CCOCC1)C(Cl)(Cl)Cl`, the IFI is 2.13%.

As for `COc1cccc(NC(=O)c2cc(C(=O)Nc3cccc(OC)c3)cc([N+](=O)[O-])c2)c1`, the IFI is 4.17%. Regarding `CC(C)CNC(=O)c1cncc(-c2ccc(CNC3Cc4ccccc4C3)cc2)c1`, the IFI worked out at 4.92%. The value for `O=C(Nc1ccc(F)cc1)c1ccc(C(=O)NC2CCN(CC3CCCCC3)CC2)cc1` was 2.68%; that for `COc1ccc(Nc2nc(N/N=C/c3ccc(-c4ccc([N+](=O)[O-])cc4)o3)nc(Nc3ccccc3)n2)cc1` was 0.74%; that for `CN(c1ccc2c(c1)nc(Nc1ccc(Cl)cc1)n2C)c1ccnc(Nc2ccc(CS(C)(=O)=O)cc2)n1` was 9.85%.

With `CCOc1ccccc1C1C(C(=O)C(C)(C)C)N2c3ccc(Br)cc3C=CC2C12C(=O)c1ccccc1C2=O` (stereo unspecified), the IFI was 16.9%.

For the compound `COc1ccc(NC(=O)/C=C/c2ccc(Cl)c(Cl)c2)cc1N1CCN(C)CC1`, the IFI came to 2.22%. The value for `N#Cc1ccc(CN2CCCN(Cc3cccc(NC(=O)c4ccc(-c5ccccc5)cc4)c3)CC2)cc1` was 8.28%; that for `O=C(NCCCCN1CCC(C(c2ccccc2)c2ccccc2)CC1)c1ccc(NC(=O)c2ccc(Cl)cc2)cc1` was 3.79%; that for `CS(=O)(=O)c1ccc(OCCCN(Cc2ccccc2C(F)(F)F)c2ccc(C#N)c(C(F)(F)F)c2)cc1` was 0.74%.

`Cc1[nH]c(C)c(-c2ccc(CCc3ccc(F)cc3F)cc2)c(=O)c1Cl` came in with an IFI of 0%. Then `N=c1[nH]c2cccc3ccc4cccc1c4c32`, with 3.65%. The value for `CCc1c(CCNCCCCCCNCc2ccc3c(c2CC)OCO3)ccc(OC)c1OC` was 8.09%; that for `CCCCNC(=O)C(C)NC(=O)c1ccc(O)c(-c2ccc(Cl)c(Cl)c2)c1` (stereo unspecified) was 2.96%; that for `O=C(Nc1ccc2ccccc2n1)c1ccccc1-c1ccccc1` was 6.74%. Then `O=S(=O)(NCCN1CCCC1)c1ccc(-c2ccc(CNCc3ccsc3)cc2)cc1F`, with 9.43%; and `NCc1cccc(-c2ccccc2CNC2CCN(Cc3ccccc3)CC2)c1`, with 2.92%; and `CN(C)c1ccc(OCCCCCCOc2ccccc2)cc1`, with 0.72%. For `CC(C)NCc1ccc(-c2ccc(CN3CCCC(c4ccccc4)C3)cc2)c(C(=O)NC2Cc3ccccc3C2)c1` (stereo unspecified), the IFI is 4.26%. `COc1ccc2nccc([C@@H](O)CN3CCC(NCCOc4ccccc4C(F)(F)F)CC3)c2c1` gave an IFI of 1.46%. The value for `N=C(N)NC(=O)Nc1cc(Cl)c(Cl)c(Br)c1` was 5.34%; that for `CC(CNC(=O)C(c1cc2ccccc2o1)N1CCN(C(c2ccccc2)c2ccccc2)CC1)c1ccccc1` (stereo unspecified) was 1.46%; that for `Cc1cccc(C)c1CNc1cccc(-c2nc(C)c(C)[nH]2)c1` was 3.7%.

Turning to `c1cc(CNCC2CCN(CC3CCCCC3)CC2)cc(-n2ccnc2)c1`, the IFI came to 1.38%.

The compound `Cc1noc(-c2ccc3c(c2)CCN(CCC2CCC(NC(=O)/C=C/c4ccc(F)cc4)CC2)CC3)n1` (stereo unspecified) yielded an IFI of 1.42%. Then `CCN(CCCN1CCCCC1)c1cc(C)nc(Nc2cc(Cl)ccc2C)n1`, with 5.13%. `CCCc1cc(N2CCC(c3ccccc3)(N3CCCCC3)CC2)nc(Nc2ccc(OC)cc2)n1` registered an IFI of 5.95%. In turn, `Oc1ccc(Nc2nc(NCc3ccccc3)c3ccccc3n2)cc1` yielded an IFI of 10.7%.
